Measurements: PubChem BioAssay AID504466 (National Center for Advancing Translational Sciences (NCATS), 2011)
In all, about 330,000 compounds went through this assay and about 4,200 (1.3%) were called active. Inconclusive results, whose numbers are uncertain, are shown with a selection of clear calls. Calls follow the shape of the dose curve; as a rule, active = well fitted activation curve with a large enough effect; inconclusive = small, poorly fitted or top-dose-only effect; inactive = no such curve, though single readings can be large or run the other way. Potencies beside an inconclusive call are fits to weak or partial responses and may not hold up.
Potency is read from the fitted curve at half-maximal effect; tags tell the direction and shape of the fitted curve.

Assay: qHTS screen for small molecules that induce genotoxicity in human embryonic kidney (HEK293T) cells expressing luciferase-tagged ELG1; also: nearly all actives have a fitted effect of over 60% in size; as to activity change, positive = activation: % of control where 0% means no effect
Settings: HEK293T ELG1-luciferase reporter, luminescence, 16 h; series mostly up to 46 µM; activity change, positive = activation: at the top concentration
Summary of the method: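 HEK293T cells expressing luciferase-tagged ELG1 were treated with compound or DMSO for 16 hr at 37°C. Luciferase activity was then read after 30 min with ONE-Glo at room temperature; rising signal flags genetic stress.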
In the case of `O=C(Oc1ccc2c(c1)OCO2)c1cccs1`, the “activity change, positive = activation” value is reported as inactive: 5.08%. For `COc1ccc(C2(C)NC(=O)N(CC(=O)Nc3ccc4ccccc4c3)C2=O)cc1OC` (configuration not stated), the “activity change, positive = activation” value was inactive: -6.82%. In the case of `CCc1ccc(CNC(=O)C2CCCN(c3nnc(C)c4c(C)n(-c5ccccc5)nc34)C2)cc1` (configuration not stated), the “activity change, positive = activation” value is reported as inactive: -13.6%. For `Cc1c(C(=O)OCC(=O)N2CC(C)CC(C)C2)oc2ccccc12` (configuration not stated), the “activity change, positive = activation” value was inactive: -0.623%. In the case of `COc1ccc(NC(=O)CSc2nc(SC)ns2)c(OC)c1`, the Potency is reported as inconclusive: 11.6 µM [activator, partial curve, poor fit]. In the case of `Cn1c(SCC(=O)c2ccccc2)nnc1-c1ccc(O)cc1`, the Potency is reported as inconclusive: 20.6 µM [activator, partial curve, poor fit]. With `Cc1c(C(=O)Nc2ccccc2[N+](=O)[O-])csc1-c1ccccc1` the Potency was active: 4.61 µM. In the case of `Cc1cc(C(F)(F)F)nc(SCCN2CCCCC2)c1C#N`, the “activity change, positive = activation” value is reported as inactive: -2.13%. In the case of `CC(C)CS(=O)(=O)C1=NSC2=NC(=O)/C(=C\c3ccc(OC(=O)c4ccco4)cc3)C(=N)N21`, the “activity change, positive = activation” value is reported as inactive: 0.672%. With `C=CCSc1nc(N)c2c(C)c(C)sc2n1` the Potency was inconclusive: 20.6 µM [activator, partial curve, poor fit]. With `COc1ccc(-c2noc(CCC(=O)Nc3cccc(C)c3)n2)cc1` the Potency was inconclusive: 18.4 µM [activator, partial curve, poor fit]. In the case of `Cc1cccc(C(=O)Nc2ccc3c(c2)ncn3C)c1`, the Potency is reported as inconclusive: 8.2 µM [activator, partial curve]. For `COc1ccc(-c2noc(CCc3ccccc3)n2)cc1`, the Potency was inconclusive: 18.3 µM [activator, single point]. In the case of `Cc1ccc2c(COC(=O)c3ccccc3Br)cc(=O)oc2c1`, the Potency is reported as active: 14.6 µM. With `CCC1(c2ccc(F)cc2)NC(=O)N(CC(=O)Nc2ccc(-c3nc4ccc(C)cc4s3)cc2)C1=O` (configuration not stated) the Potency was inconclusive: 5.17 µM [activator, partial curve]. In the case of `CC(C)c1csc(CN2CCC(CO)(Cc3ccccc3)CC2)n1`, the Potency is reported as inconclusive: 16.4 µM [activator, single point]. For `Cc1cccc(OC(=O)c2sc3ncn(C)c(=O)c3c2C)c1`, the Potency was inconclusive: 14.6 µM [activator, partial curve, poor fit]. In the case of `O=C(CSc1nc(-c2ccccc2)ns1)NCC1CCCO1` (configuration not stated), the Potency is reported as inconclusive: 20.6 µM [activator, partial curve, poor fit]. In the case of `CCc1ccc(OCC(=O)N2CCc3ccccc32)cc1`, the Potency is reported as inconclusive: 16.4 µM [activator, partial curve]. With `CN(c1ccccc1)S(=O)(=O)c1cccc(NC(=O)C2=NNC(=O)CC2)c1` the “activity change, positive = activation” value was inactive: -3.81%. With `O=C(Cc1ccccc1F)Nc1ccc2c(c1)CCC2` the Potency was active: 14.6 µM. In the case of `O=C(Nc1ccc(Cl)cc1Cl)c1ccc(Br)o1`, the Potency is reported as inconclusive: 20.6 µM [activator, single point]. For `CC(C)(C)n1ncc2c(=O)n(CC(=O)NCc3ccccc3Cl)cnc21`, the Potency was inconclusive: 2.59 µM [activator, full curve]. In the case of `O=C(Nc1ccc(N2CCOCC2)cc1)c1ccc(Cl)c(S(=O)(=O)N2CCCCC2)c1`, the “activity change, positive = activation” value is reported as inactive: -0.4%. With `O=C(O)c1cccc(S(=O)(=O)Nc2ccc3oc(=O)sc3c2)c1` the “activity change, positive = activation” value was inactive: -1.39%. For `O=C(NCc1ccccc1)c1noc2c1CCCCC2`, the Potency was inconclusive: 11.6 µM [activator, partial curve, poor fit]. With `NC1=NC(=Nc2ccccc2)c2ccccc21` the Potency was inconclusive: 23.1 µM [activator, partial curve, poor fit]. For `CCOc1ccc(-c2nnc(-c3cccs3)o2)cc1`, the Potency was inconclusive: 2.31 µM [activator, partial curve, poor fit]. In the case of `CCCN1C(=O)c2ccc(C(=O)Nc3cc(C)ccc3O)cc2C1=O`, the Potency is reported as inconclusive: 11.6 µM [activator, partial curve]. In the case of `CN1CCN(C(=O)CSc2cc(=O)n(C)c3ccccc23)CC1`, the Potency is reported as inconclusive: 25.9 µM [activator, partial curve, poor fit]. With `CCCS(=O)(=O)c1cnc(C2COc3ccccc3O2)nc1N` (configuration not stated) the Potency was inconclusive: 0.073 µM [activator, full curve, poor fit]. In the case of `O=C(c1cc(COc2c(F)cccc2F)on1)N1CCC(c2ccccc2F)C1` (configuration not stated), the Potency is reported as inconclusive: 13 µM [activator, partial curve, poor fit]. With `O=C(CNC(=O)c1ccccc1)OCC(=O)c1ccccc1Cl` the “activity change, positive = activation” value was inactive: -5.88%. With `c1ccc(Nc2nc3ccccc3n3nnnc23)cc1` the Potency was inconclusive: 16.4 µM [activator, single point]. In the case of `O=C(Nc1ccc(-c2nc3ccccc3o2)cc1)c1cccnc1`, the Potency is reported as inconclusive: 2.06 µM [activator, partial curve, poor fit]. With `CCSc1nn2c(=O)c3ccccc3nc2s1` the Potency was active: 5.01 µM. With `O=C(NCCCN1CCOCC1)C1CCN(S(=O)(=O)c2cccc(C(F)(F)F)c2)CC1` the “activity change, positive = activation” value was inactive: 2.04%. With `Cc1ccc(C(=O)OCC(=O)Nc2ccccc2)cc1NC(=O)c1ccco1` the Potency was inconclusive: 25.9 µM [activator, partial curve, poor fit]. With `O=C(Nc1ccccn1)c1ccc(COc2ccccc2Cl)o1` the Potency was inconclusive: 18.4 µM [activator, single point]. For `O=C(O)c1ccc(/C=C/C(=O)c2ccc3c(c2)OCCCO3)cc1`, the Potency was inconclusive: 6.51 µM [activator, single point]. With `Cc1ccc(-c2nc3ccccc3[nH]2)s1` the Potency was inconclusive: 1 µM [activator, full curve, poor fit]. For `COc1ccc(CNC(=O)CCNS(=O)(=O)c2ccc(Cl)cc2)cc1`, the Potency was inconclusive: 2.91 µM [activator, partial curve]. With `Cc1cccc(C(=O)N=c2sccn2C)c1[N+](=O)[O-]` the Potency was active: 10.3 µM. For `CCN(CC)CCCNC(=S)Nc1ccc(Br)cc1`, the Potency was active: 23.1 µM. In the case of `O=C1NC(=O)/C(=C\c2ccc(Sc3ccc(Cl)cc3)o2)N1`, the “activity change, positive = activation” value is reported as inactive: -3.94%. For `O=C(NCc1csc(-c2ccccc2)n1)c1ccco1`, the Potency was inconclusive: 20.6 µM [activator, single point]. With `O=C(COc1ccccc1)NC1=NCCS1` the Potency was active: 14.6 µM.
